{"source": "paper PMC4336329", "about": "(PLoS ONE, 2015)", "note": "Hit rate of the full screen: of about 310,000 compounds, about 2,200 (0.71%) showed an effect of 50% or more. Effects have a minus sign here. This is one part of the list.", "data": [{"target": "human ether-à-go-go-related gene (hERG) potassium channel (human, UniProt Q12809)", "sequence (Q12809 whole entry, looked up)": "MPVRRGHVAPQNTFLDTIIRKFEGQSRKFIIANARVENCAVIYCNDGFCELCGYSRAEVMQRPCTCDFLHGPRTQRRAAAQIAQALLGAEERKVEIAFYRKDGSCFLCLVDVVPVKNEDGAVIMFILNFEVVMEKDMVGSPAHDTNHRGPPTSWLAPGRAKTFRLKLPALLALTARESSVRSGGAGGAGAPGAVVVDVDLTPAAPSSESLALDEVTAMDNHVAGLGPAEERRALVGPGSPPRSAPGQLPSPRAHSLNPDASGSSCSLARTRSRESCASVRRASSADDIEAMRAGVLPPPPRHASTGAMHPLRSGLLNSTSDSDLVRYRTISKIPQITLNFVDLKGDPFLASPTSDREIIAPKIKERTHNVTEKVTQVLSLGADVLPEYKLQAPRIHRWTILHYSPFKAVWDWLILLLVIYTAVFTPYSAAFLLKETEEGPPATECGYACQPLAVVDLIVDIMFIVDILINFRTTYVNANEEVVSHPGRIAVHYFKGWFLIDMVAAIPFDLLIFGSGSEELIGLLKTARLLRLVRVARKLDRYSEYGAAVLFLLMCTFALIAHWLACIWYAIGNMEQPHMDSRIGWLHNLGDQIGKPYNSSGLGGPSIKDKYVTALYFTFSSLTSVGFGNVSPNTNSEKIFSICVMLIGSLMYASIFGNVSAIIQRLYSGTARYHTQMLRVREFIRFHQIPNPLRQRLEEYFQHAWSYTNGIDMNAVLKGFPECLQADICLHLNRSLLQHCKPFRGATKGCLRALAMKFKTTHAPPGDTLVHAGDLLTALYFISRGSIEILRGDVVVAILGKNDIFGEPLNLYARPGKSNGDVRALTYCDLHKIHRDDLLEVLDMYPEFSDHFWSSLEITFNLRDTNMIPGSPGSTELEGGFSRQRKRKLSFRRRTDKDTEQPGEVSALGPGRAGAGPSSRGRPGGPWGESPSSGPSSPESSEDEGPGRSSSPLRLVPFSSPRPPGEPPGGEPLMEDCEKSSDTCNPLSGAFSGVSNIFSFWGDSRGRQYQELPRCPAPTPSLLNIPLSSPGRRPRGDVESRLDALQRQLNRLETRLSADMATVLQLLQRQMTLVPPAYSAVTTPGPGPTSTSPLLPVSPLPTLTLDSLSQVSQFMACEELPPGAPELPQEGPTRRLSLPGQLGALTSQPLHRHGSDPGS", "assay": "primary screen, population patch clamp on CHO cells stably expressing hERG", "units": {"hERG current change (%, negative = inhibition) at 1uM": "%"}, "values": [{"smiles": "Cc1ccc(CN2CCSCC2)cc1", "hERG current change (%, negative = inhibition) at 1uM": 15.2}, {"smiles": "FC(F)(F)c1cc(Oc2ccccc2)ncc1-c1nnc(-c2ccccc2Cl)o1", "hERG current change (%, negative = inhibition) at 1uM": 5.61}, {"smiles": "Cc1cc(C(F)(F)F)nc(SCCN2CCOCC2)c1C#N", "hERG current change (%, negative = inhibition) at 1uM": 5.97}, {"smiles": "N#CCCn1cc(C(=O)Nc2ccc([N+](=O)[O-])cc2)c(-c2ccccc2)n1", "hERG current change (%, negative = inhibition) at 1uM": -67.8}, {"smiles": "CCOC(=O)N1CCN(C(=O)CCc2ccc(S(=O)(=O)NCC(C)C)cc2)CC1", "hERG current change (%, negative = inhibition) at 1uM": 8.99}, {"smiles": "COC(=O)C1=C(C)OC(N)=C(C#N)C1c1ccccc1", "note": "(centres unmarked)", "hERG current change (%, negative = inhibition) at 1uM": 15.9}, {"smiles": "Cn1c(O)c(N=NC(=O)Cn2ccc(C(F)(F)F)n2)c2ccccc21", "hERG current change (%, negative = inhibition) at 1uM": 16.6}, {"smiles": "CCc1cccc(NC(=O)COc2ccccc2)c1", "hERG current change (%, negative = inhibition) at 1uM": 16.1}, {"smiles": "Cc1ccc(-c2nn(Cc3ccccc3)cc2C(=O)N2CCN(c3ccccn3)CC2)cc1", "hERG current change (%, negative = inhibition) at 1uM": -11.2}, {"smiles": "O=C(CN1C(=O)c2ccccc2S1(=O)=O)NC1CCCCCC1", "hERG current change (%, negative = inhibition) at 1uM": 0.533}, {"smiles": "C=CCSc1nc2c(c(=O)[nH]c(=O)n2C)n1CC", "hERG current change (%, negative = inhibition) at 1uM": 3.31}, {"smiles": "COc1ccc(S(=O)(=O)N2CCN(C/C=C/c3ccccc3)CC2)cc1NC(C)=O", "hERG current change (%, negative = inhibition) at 1uM": -54.2}, {"smiles": "COc1cccc(OC)c1C(=O)NNC(=O)c1ccccc1-n1cccc1", "hERG current change (%, negative = inhibition) at 1uM": 10.9}, {"smiles": "CNC(=O)c1[nH]cnc1C(=O)Nc1ccccn1", "hERG current change (%, negative = inhibition) at 1uM": 10.6}, {"smiles": "CCC(=O)Nc1c2c(nn1-c1ccc(C)cc1)CS(=O)(=O)C2", "hERG current change (%, negative = inhibition) at 1uM": 10.2}, {"smiles": "Cc1ccc(CCNC(=O)C2CCCN(c3ncnc4c3nc3n4CCCCC3)C2)cc1", "note": "(centres unmarked)", "hERG current change (%, negative = inhibition) at 1uM": -5.01}, {"smiles": "O=C(OCc1nnc(-c2ccccc2)o1)c1cc(Cl)ccc1[N+](=O)[O-]", "hERG current change (%, negative = inhibition) at 1uM": 15.6}, {"smiles": "Cc1nc(C)n(CC(O)COc2ccc(C(=O)c3ccccc3)cc2)n1", "note": "(centres unmarked)", "hERG current change (%, negative = inhibition) at 1uM": 10.1}, {"smiles": "COc1ccc(C2C(=O)N(C3CCCCC3)CC(=O)N2CC2COc3ccccc3O2)cc1", "note": "(centres unmarked)", "hERG current change (%, negative = inhibition) at 1uM": -2.08}, {"smiles": "COc1cccc(NC(=O)CN(C)C(=O)CCNC(=O)c2ccccc2Cl)c1", "hERG current change (%, negative = inhibition) at 1uM": 5.57}, {"smiles": "Cc1cc(C)n(CC(=O)N/N=C/c2cccc([N+](=O)[O-])c2)n1", "hERG current change (%, negative = inhibition) at 1uM": 6.82}, {"smiles": "Cc1ccc(-n2c(CSc3nc(C)cc(C)n3)nnc2SCC(=O)NCc2ccco2)cc1", "hERG current change (%, negative = inhibition) at 1uM": -4.89}, {"smiles": "Nc1cc(N)nc(SCC(=O)NNC(=O)Cc2ccccc2)n1", "hERG current change (%, negative = inhibition) at 1uM": 4.14}, {"smiles": "O=C(O)CCCCc1nc2ccccc2s1", "hERG current change (%, negative = inhibition) at 1uM": -5.69}, {"smiles": "CS(=O)(=O)N(CC(=O)NCc1ccccn1)Cc1ccc(Cl)cc1", "hERG current change (%, negative = inhibition) at 1uM": 8.79}, {"smiles": "CC(C)Cc1cc(C(=O)NCc2cccnc2)no1", "hERG current change (%, negative = inhibition) at 1uM": 16.4}, {"smiles": "CN1C(=O)C(=Cc2ccc(N3CCOCC3)c([N+](=O)[O-])c2)C(=O)N(C)C1=O", "hERG current change (%, negative = inhibition) at 1uM": 6.9}, {"smiles": "COc1ccc(CCNC(=O)Cn2cnc3scc(-c4ccccc4)c3c2=O)cc1OC", "hERG current change (%, negative = inhibition) at 1uM": 9.71}, {"smiles": "O=C(O)Cc1sc(-c2ccc(C(=O)O)cc2)nc1-c1ccccc1", "hERG current change (%, negative = inhibition) at 1uM": 16.5}, {"smiles": "O=C1C=C(NCc2ccc(Cl)cc2Cl)C2(CCCCC2)O1", "hERG current change (%, negative = inhibition) at 1uM": 6.48}, {"smiles": "CC(C)C(=O)OCC(=O)NCc1ccccc1Cl", "hERG current change (%, negative = inhibition) at 1uM": 3.5}, {"smiles": "CS(=O)(=O)c1ccc(Cl)c(NC(=O)C2CC(=O)N(c3ccc4c(c3)OCCO4)C2)c1", "note": "(centres unmarked)", "hERG current change (%, negative = inhibition) at 1uM": 6.75}, {"smiles": "CCOC(=O)CN1CC23C=CC(O2)C(C(=O)Nc2ccc(OCC)cc2)C3C1=O", "note": "(centres unmarked)", "hERG current change (%, negative = inhibition) at 1uM": 9.33}, {"smiles": "CCCCCOc1ccc(NC(=O)C(=O)NCC2CCCN2CC)cc1", "note": "(centres unmarked)", "hERG current change (%, negative = inhibition) at 1uM": -11.4}, {"smiles": "O=S(=O)(c1ccc(Cl)cc1)N1CCCc2ccccc21", "hERG current change (%, negative = inhibition) at 1uM": 11}, {"smiles": "O=C(O)c1cc(Cl)c(Cl)cc1C(=O)N1CCCC1", "hERG current change (%, negative = inhibition) at 1uM": 1.69}, {"smiles": "COc1ccc(NS(=O)(=O)c2ccc(NC(=O)c3ccccc3)cc2)nn1", "hERG current change (%, negative = inhibition) at 1uM": 9.87}, {"smiles": "CC(=O)N1CCc2ccc(S(=O)(=O)N3CCN(C)CC3)cc21", "hERG current change (%, negative = inhibition) at 1uM": 17.6}, {"smiles": "CCCNC(=O)Nc1ccsc1C(=O)OC", "hERG current change (%, negative = inhibition) at 1uM": 4.02}, {"smiles": "CCCCC(CC)CN1C(=O)/C(=C/c2ccncc2)SC1=S", "note": "(centres unmarked)", "hERG current change (%, negative = inhibition) at 1uM": 10}, {"smiles": "CC1CCCCN1CCNC(=O)c1ccc2c(=O)n(CCc3ccccc3)c(=O)[nH]c2c1", "note": "(centres unmarked)", "hERG current change (%, negative = inhibition) at 1uM": -5.24}, {"smiles": "O=C(Oc1ccc2ccc(=O)oc2c1)c1cccs1", "hERG current change (%, negative = inhibition) at 1uM": 12}, {"smiles": "COc1cc2c(cc1O)C(SC)=NC(C)(C)C2", "hERG current change (%, negative = inhibition) at 1uM": 17.4}, {"smiles": "CCN(CC(=O)Nc1c(F)cccc1F)C(=O)c1n[nH]c2ccccc12", "hERG current change (%, negative = inhibition) at 1uM": 15}]}]}
